# According to EPA's CvTdb concentration-time database:
# Further values from the same series stand in other lists.
# Columns and labels:
# Test in all cases: concentration in plasma after dosing
# Rat [1] = details: dosed: Perfluorodecanoic acid, 20 mg/kg, oral, Female, Harlan Sprague Dawley
# Rat [2] = details: 1 h; dosed: Perfluorodecanoic acid; 10 mg/kg; oral; Female; Harlan Sprague Dawley
# Rat [3] = details: dosed: Perfluorodecanoic acid, 2 mg/kg, oral, Male, Harlan Sprague Dawley
# Rat [4] = details: dosed: Perfluorooctane Sulfonate, 20 mg/kg, oral, Female, F344
# Rat [5] = details: 3 h; dosed: Fluorotelomer alcohol 8+2; 48 mg/kg; oral; Male; Harlan Sprague Dawley
# Rat [6] = details: dosed: Perfluorooctanoic acid, 48 mg/kg, oral, Male, Harlan Sprague Dawley
# Rat [7] = details: dosed: Perfluorooctanoic acid, 320 mg/kg, oral, Female, Harlan Sprague Dawley
# Rat [8] = details: dosed: Perfluorooctanoic acid, 40 mg/kg, iv, Male, F344
structure (smiles),measurement,setting,value
O=C(O)C(F)(F)C(F)(F)C(F)(F)C(F)(F)C(F)(F)C(F)(F)C(F)(F)C(F)(F)C(F)(F)F [Perfluorodecanoic acid],concentration in plasma,Rat [1]; 0.5 h,27200 ng/mL
same,concentration in plasma,Rat [1]; 24 h,147000 ng/mL
same,concentration in plasma,Rat [1]; 1848 h,18300 ng/mL
same,concentration in plasma,Rat [2],20900 ng/mL
same,concentration in plasma,Rat [3]; 2 h,6370 ng/mL
same,concentration in plasma,Rat [3]; 528 h,4050 ng/mL
same,concentration in plasma,Rat [3]; 3360 h,703 ng/mL
O=S(=O)([O-])C(F)(F)C(F)(F)C(F)(F)C(F)(F)C(F)(F)C(F)(F)C(F)(F)C(F)(F)F [Perfluorooctane Sulfonate],concentration in plasma,Rat [4]; 12 h,139000 ng/mL
same,concentration in plasma,Rat [4]; 1200 h,35000 ng/mL
O=C(O)C(F)(F)C(F)(F)C(F)(F)C(F)(F)C(F)(F)C(F)(F)C(F)(F)F [Perfluorooctanoic acid],concentration in plasma,Rat [5],1350 ng/mL
same,concentration in plasma,Rat [6]; 3 h,196000 ng/mL
same,concentration in plasma,Rat [6]; 24 h,259000 ng/mL
same,concentration in plasma,Rat [6]; 1200 h,2880 ng/mL
same,concentration in plasma,Rat [7]; 3 h,451000 ng/mL
same,concentration in plasma,Rat [7]; 24 h,434000 ng/mL
same,concentration in plasma,Rat [8]; 0.25 h,264000 ng/mL
same,concentration in plasma,Rat [8]; 6 h,108000 ng/mL
